Assay results published in PubChem BioAssay AID493208 (National Center for Advancing Translational Sciences (NCATS), 2011).
The campaign covered roughly 44,000 compounds. About 340 (0.77%) were called active. Another 5% or so got no clear call; they are omitted. Calls follow the shape of the dose curve; as a rule, active = well fitted inhibition curve with a large enough effect; inconclusive = small, poorly fitted or top-dose-only effect; inactive = flat fitted curve, though single readings scatter. The list shows a part of the results.

experiment: Acumen qHTS Assay for Inhibitors of the mTORC1 Signaling Pathway in MEF (Tsc2-/-, p53-/-) Cells: Sytravon; settings: phospho-rpS6 immunofluorescence/PI, 24 h; series mostly up to 38.3 µM; activity change, negative = inhibition: at the top concentration;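 also: plate controls were DMSO for no effect and rapamycin for full effect; nearly all actives have a fitted effect of over 50% in size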
How it was run: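 Tsc2-/-, p53-/- MEFs (empty-vector stable line) in DMEM + 10% FBS were treated with compounds 24 h at 37 degree Celsius, fixed, and immunostained for phospho-rpS6 (Alexa-488) with propidium iodide counterstain. Laser-scanning cytometry gave % positive cells, normalized against 7.5 nM rapamycin and DMSO.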

Activity change, negative = inhibition, inactive:
COc1ccc(N2Cc3cccc(C(=O)Nc4ccc(F)cc4)c3C2=O)cc1 -0.463%
O=C(Nc1c(C(=O)N2CCN(c3ccccc3)CC2)oc2ccccc12)c1ccco1 0.638%
Cc1c(C(=O)NCCc2ccc(Cl)cc2)sc2nc3n(c(=O)c12)CCCC3 -0.566%
Cc1ccccc1CN1c2ccccc2-c2nc(SCC(=O)NCc3ccccc3)ncc2S1(=O)=O -17.1%
Cc1ccc2nc(CNC(=O)c3ccccc3)[nH]c2c1 -0.584%
Cc1cccc(-c2noc(CSc3nc(-c4ccc(F)cc4)cc(=O)[nH]3)n2)c1 0%
COc1ccc(CCNC(=O)C(=O)NCC(c2ccc3c(c2)OCO3)N2CCOCC2)cc1OC (configuration not stated) -4%
CCOc1ccc(NC(=O)c2oc3ccccc3c2NC(=O)c2c(F)cccc2F)cc1 -23.3%
CCOc1ccc(NC(=O)C2CCCN(S(=O)(=O)c3ccc4[nH]c(=O)ccc4c3)C2)cc1 (configuration not stated) -2.64%
Cc1ccc(NC(=O)C(=O)c2cc(C)n(-c3ccc(F)cc3)c2C)cc1C -0.0615%
COc1ccccc1N1CCN(C(=O)CSc2nc3ccccc3nc2Cc2ccccc2)CC1 3.34%
COc1cccc(-n2ccn(CC(=O)c3ccc(F)cc3)c(=O)c2=O)c1 1.03%
Cc1ccc(CSC2=Nc3ccccc3C3=NC(CC(=O)NC4CCCCC4)C(=O)N23)cc1 (configuration not stated) 1.6%
CCCN(CCC)S(=O)(=O)c1ccc2c(c1)N(CC(=O)NC(C)c1ccccc1)C(=O)CS2 (configuration not stated) 6.05%
COc1ccc(CNC(=O)c2cc(Nc3ccc(C)cc3C)nc3ccccc23)cc1 3.45%
CCN(c1cccc(C)c1)S(=O)(=O)c1nnc(NC(=O)c2ccccc2Cl)s1 3.12%
Cc1ccc2nc(-c3ccc(NC(=O)COc4ccccc4)cc3)sc2c1 1.66%
COc1ccccc1N1CCN(C(=O)c2cc(-c3ccc(F)cc3)on2)CC1 -4.89%
CC(=O)c1ccc(N2C(=O)N(CC(=O)c3ccc(C)cc3)c3ccccc3S2(=O)=O)cc1 6.36%
Cc1ccc2c(c1)N(C(=O)N1CCC(C(=O)NC3CCCCCC3)CC1)CC(C)O2 (configuration not stated) 11.2%
COc1cc(NC(=O)Cc2c(C(=O)O)c(C)cn2C)cc(OC)c1 2.04%
CCOc1ccc(C2C(=O)N(C3CCCCC3)CC(=O)N2C2CCCC2)cc1OC (configuration not stated) 7.01%
COc1ccc(/C=C/C(=O)Nc2sc3c(c2C(N)=O)CCC(C)C3)cc1OC (configuration not stated) 9.43%
CCOC(=O)c1c(NC(=O)c2cc(C)on2)sc(C)c1C -10.4%
CNC(=O)c1ccc(Nc2nnc(-c3ccc(C)c(S(=O)(=O)N4CCCCC4)c3)c3ccccc23)cc1 -1.54%
Cc1ccc(-n2ncc3c(N4CCN(C)CC4)ncnc32)cc1Cl 8.94%
CCOc1ccc(NC(=O)CCS(=O)(=O)c2cccc3nonc23)cc1 -10.6%
CNC(=O)c1c[nH]c2ccc(S(=O)(=O)Nc3cccc(Cl)c3C)cc2c1=O -0.595%
CCc1cccc(NC(=O)CSc2ncccc2C(=O)Oc2ccccc2Cl)c1 5.88%
COc1ccc(CNC(=O)CCC(=O)N2CC3CCCN3c3ccccc32)c(OC)c1 (configuration not stated) 0.59%
Cc1cc(C)cc(OCc2ccc(C(=O)Nc3ccccc3F)o2)c1 0.285%
Cc1cc(C)c2c(=O)cc(C(=O)Nc3sc4c(c3C(=O)NCc3cccnc3)CCCC4)oc2c1 3.88%
CCC(Sc1nc2nccnc2c(=O)n1Cc1ccc(OC)cc1)C(=O)NC1CCCCC1 (configuration not stated) -3.15%
CC(C)C12CN3CC(C(C)C)(CN(C1)C3c1ccc(OCc3ccccc3)cc1)C2=O (configuration not stated) -2.1%
CCOc1ccccc1CNC(=O)c1ccc2c(c1)sc1nc(-c3cccc(OC)c3)cn12 7.2%
CC(C)n1c(SCC(=O)Nc2ccc(F)cc2)nc2c(oc3ccccc32)c1=O -3.5%
COC(=O)c1cc(S(=O)(=O)NCC2CCN(Cc3ccc(C)cc3)CC2)c[nH]1 0%
CC(=O)c1cccc(NC(=O)c2ccc(-n3c(C)nnc3C)cc2)c1 0.4%
CCOc1ccc(-n2c(SCC(=O)Nc3ccc(F)cc3)nc3c([nH]c4ccccc43)c2=O)cc1 1.37%
CC(C)(C)OC(=O)N1CCC(c2nnc(SCc3ccccc3)o2)CC1 -0.982%
Cc1cc(NC(=O)COc2ccccc2)cc(-c2nc3ccccc3o2)c1O -1.12%
O=C1OC(C(=O)Nc2ccc(Cl)c(C(F)(F)F)c2)Cc2ccccc21 (configuration not stated) 0.501%
COc1ccc(-c2noc(-c3ccc(N4CCCCC4C)c([N+](=O)[O-])c3)n2)cc1OC (configuration not stated) -2.42%
COc1ccccc1CNC(=O)c1ccc(N2Cc3cccc(OC)c3Oc3ncccc32)s1 -0.342%
CCCn1c(-c2cccc(Br)c2)nc2ccccc21 0.685%
CCCN1C(=O)C(Cc2nc3ccccc3c(=O)n2-c2cccc(C)c2)c2ccccc21 (configuration not stated) -3%
Cn1ncc(C(=O)N2CCN(c3ccc(F)cc3)CC2)c1C1CCN(C(=O)OC(C)(C)C)CC1 4.26%
Cc1ccc(C2=CC(c3c(F)cccc3Cl)n3ncnc3N2)cc1C (configuration not stated) -5.49%
CC(=O)Nc1cc(-c2nc3ccccc3s2)ccc1C 7.38%
Cc1cc(C)cc(NC(=O)C2CCCN2S(=O)(=O)c2cccc3nsnc23)c1 (configuration not stated) -0.384%
CCn1c(-c2ccc(S(=O)(=O)N3CCOCC3)cc2)csc1=Nc1ccc(C)c(Cl)c1 10.4%
O=C(CSc1nnc2[nH]c(=O)cc(-c3ccccc3)n12)Nc1ccc(F)cc1F 2.51%
CCOC(=O)c1ccc(CN(Cc2ccccc2C)S(=O)(=O)c2ccc(C(C)(C)C)cc2)cc1 8.85%
COc1cccc(C2C(C(=O)Nc3ccccc3)=C(C)Nc3nc(-c4ccccc4)nn32)c1OC (configuration not stated) 4.05%
Cc1cccc(-c2noc(-c3ccc(N4CCN(C)CC4)c([N+](=O)[O-])c3)n2)c1 -0.21%
COc1ccc(CNc2nc3c(c(=O)n(C)c(=O)n3C)n2Cc2ccccc2Cl)cc1 -2.06%
COc1ccc(C)cc1NC(=O)c1ccc2c(c1)CCN2S(=O)(=O)c1ccc(Cl)cc1 -5.79%
Cc1ccc(Cn2c(C)c(CNCCCc3ccccc3)c(C(=O)O)c2C)cc1 -2.31%
CCCCNC(=O)CSc1nnc(C)c2c(C)n(-c3ccccc3)nc12 0%
CC1CCN(S(=O)(=O)c2ccc3c(c2)CCC(=O)N3CC(=O)Nc2cccc(C#N)c2)CC1 0%
Cc1ccc(-c2cc3c(n2-c2ccc(C)cc2)CC(C)(C)CC3=O)cc1 2.64%
Cc1ccc(-c2noc(CNC(=O)c3ccccc3)n2)cc1 6.8%
CCC1CN(C(=O)N2CCC(C(=O)NCc3ccccc3C)CC2)c2ccccc2O1 (configuration not stated) 11.9%
CC(C)NC(=O)C1CCN(c2nc3ccccc3nc2C(F)(F)F)CC1 -4.38%
O=C(NCc1ccccc1)c1ccc(CSc2nc3cccnc3n2Cc2ccccc2F)cc1 -3.46%
O=C(NCCOCCn1c(=O)oc2ccccc21)Nc1ccc(F)cc1 0.525%
COc1ccc(OCC(=O)Nc2cccc(-c3nc4ccccc4s3)c2C)cc1 -16.9%
Cc1nc(N2CCCC2)ncc1C(=O)Nc1ccc(F)cc1F 0%
COc1ccccc1OCC(=O)Nc1nc(-c2ccc(Br)cc2)ns1 -0.874%
Cc1ccc(NC(=O)C2CCN(S(=O)(=O)c3c(C)noc3/C=C/c3ccco3)CC2)cc1C 1.31%
Cc1cc2c(cc1S(=O)(=O)N(CCN(C)C)Cc1ccco1)OCC(=O)N2 6.12%
Cc1ccc(S(=O)(=O)c2cn(C)c3cc(N4CCCC(C)C4)c(F)cc3c2=O)c(C)c1 (configuration not stated) 4.15%
Cc1ccc(CN2CCc3nc(N4CCN(C)CC4)ncc3C2)s1 16.2%
Cc1ccc(-n2ncc3c(N4CCC(Cc5ccccc5)CC4)ncnc32)cc1 7.76%
CC(C)(C)CC(=O)NC1CC(=O)N(c2ccc3c(c2)OCCO3)C1 (configuration not stated) -1.11%
O=C(c1ccc2c(c1)N(Cc1ccccc1F)C(=O)c1ccccc1S2=O)N1CCOCC1 (configuration not stated) 3.35%
Cc1cccc(N(C)C(=O)CSc2nc3ncccc3o2)c1 -7.86%
Cc1ccc2c(c1)cc1c(=O)n(CC(=O)N3CCCCC3)nc(C)n12 -1.09%
O=C(NCC1CCCO1)c1c[nH]c2ccc(S(=O)(=O)Nc3cccc(C(F)(F)F)c3)cc2c1=O (configuration not stated) -9.33%
COc1ccc2c(c1)c1c(c(=O)n(-c3ccccc3)c(=O)n1CC(=O)Nc1ccc(C)c(C)c1)n2C 1.61%
CN(Cc1ccccc1)S(=O)(=O)c1nnc(NC(=O)c2ccccc2)s1 6.95%
N#Cc1ccc(CSc2nc3c(c(=O)[nH]2)CCCC3)cc1 1.02%
Cc1cccc(N(C)C(=O)CCNS(=O)(=O)c2ccc3c(c2)CCN3C(=O)C2CC2)c1 -1.12%
O=C(Nc1c(C(=O)Nc2ccccc2F)oc2ccccc12)c1cc2ccccc2o1 1.28%
COC(=O)CCn1cnc2onc(-c3cc(F)cc(F)c3)c2c1=O -3.39%
CC(C)Sc1ncc(Cl)c(C(=O)Nc2ccc(S(=O)(=O)N(C)c3ccccc3)cc2)n1 -9.85%
Fc1ccc2ncc3c(-c4ccccc4)n[nH]c3c2c1 16%
Cn1ncc2c(Nc3cccc(F)c3)ncnc21 0%
COc1cc(C(CC(=O)NCCC(C)C)N2Cc3ccccc3C2=O)cc(OC)c1OC (configuration not stated) -8.04%
COc1cc(NC(=O)CN2CCN(CC(=O)Nc3ccc(F)cc3)CC2)cc(OC)c1 0.961%
CN(C(=O)c1cc2c(s1)-c1ccc(Cl)cc1SC2)c1cccc(C(F)(F)F)c1 -0.39%
O=C(CN1C(=O)COc2ccc(S(=O)(=O)N3CCCCC3)cc21)NCc1ccc(Cl)cc1 -3.18%
COc1ccc(CCNC(=O)c2cnc3sc(N4CCCC4)nn3c2=O)cc1OC -1.68%
CSCCC(NS(=O)(=O)c1ccc2c(c1)oc(=O)n2C)C(=O)N1CCN(c2cccc(Cl)c2)CC1 (configuration not stated) -2.7%
Cc1ccc(CNC(=O)c2nnn(CC(=O)Nc3cc(C)ccc3C)c2N)cc1 -7.02%
Cc1ccc(CN(Cc2ccco2)C(=O)COc2ccc(Cl)cc2)o1 1.04%
CCc1ccccc1NS(=O)(=O)c1ccc(NC(=O)N2CCCC2)cc1 6.33%
